Among all 310,000 compounds or so, about 2,200 (0.71%) showed an effect of 50% or more. The effect is printed as a negative number. Some of the results follow. Where a SMILES comes first, the peptide text is derived from it. [ ]: non-standard residue; d: D form. pGlu = O=C1CC[CH](C(=O)O)N1
target: human ether-à-go-go-related gene (hERG) potassium channel (human, UniProt Q12809); assay: primary screen, population patch clamp on CHO cells stably expressing hERG
Sequence (Q12809 whole entry, looked up): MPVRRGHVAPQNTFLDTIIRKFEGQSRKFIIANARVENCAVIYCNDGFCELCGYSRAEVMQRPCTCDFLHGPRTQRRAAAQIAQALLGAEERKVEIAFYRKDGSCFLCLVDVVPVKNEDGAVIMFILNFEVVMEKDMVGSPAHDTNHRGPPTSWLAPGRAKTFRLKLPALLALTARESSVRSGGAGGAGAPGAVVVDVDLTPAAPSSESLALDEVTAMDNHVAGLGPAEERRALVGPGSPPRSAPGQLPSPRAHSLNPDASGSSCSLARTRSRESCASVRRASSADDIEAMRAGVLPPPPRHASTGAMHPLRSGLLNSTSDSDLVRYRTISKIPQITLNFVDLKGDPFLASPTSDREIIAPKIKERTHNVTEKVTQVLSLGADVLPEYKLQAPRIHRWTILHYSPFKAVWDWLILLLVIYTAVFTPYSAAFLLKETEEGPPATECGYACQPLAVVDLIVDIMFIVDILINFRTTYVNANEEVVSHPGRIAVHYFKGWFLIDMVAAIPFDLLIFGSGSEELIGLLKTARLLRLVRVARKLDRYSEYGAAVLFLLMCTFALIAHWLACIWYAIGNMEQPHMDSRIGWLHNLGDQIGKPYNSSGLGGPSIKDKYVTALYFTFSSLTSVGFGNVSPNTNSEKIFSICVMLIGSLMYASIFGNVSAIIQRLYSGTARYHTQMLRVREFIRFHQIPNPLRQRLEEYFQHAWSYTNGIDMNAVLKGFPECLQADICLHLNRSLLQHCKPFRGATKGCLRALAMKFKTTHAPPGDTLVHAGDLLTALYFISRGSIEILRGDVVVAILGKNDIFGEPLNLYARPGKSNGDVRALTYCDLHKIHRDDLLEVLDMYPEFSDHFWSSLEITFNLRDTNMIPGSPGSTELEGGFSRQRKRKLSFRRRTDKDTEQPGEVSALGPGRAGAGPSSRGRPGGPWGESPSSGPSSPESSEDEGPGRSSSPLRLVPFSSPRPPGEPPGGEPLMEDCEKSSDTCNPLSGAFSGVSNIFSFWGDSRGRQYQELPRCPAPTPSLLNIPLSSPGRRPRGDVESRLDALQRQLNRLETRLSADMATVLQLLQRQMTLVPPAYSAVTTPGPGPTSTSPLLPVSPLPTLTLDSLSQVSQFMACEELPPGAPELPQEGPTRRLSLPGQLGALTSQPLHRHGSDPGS

Compound	hERG current change (%, negative = inhibition) at 1uM [%]
Cc1cccc(OCC(=O)N(Cc2ccco2)C2CCS(=O)(=O)C2)c1 (centres unmarked)	1.08
N/C(=N\c1nc2ccccc2o1)NC(=O)c1ccccc1	16.6
COc1cccc(NC(=O)c2oc3ccc(S(=O)(=O)N4CCOCC4)cc3c2C)c1	10.7
CCOc1cc(C(=O)N2CCC(CC3CC(c4ccc(Cl)cc4)=NO3)(C(=O)NCC3CCCCC3)CC2)cc(OCC)c1OCC (centres unmarked)	11.9
Cl.N=C(c1ccc([N+](=O)[O-])cc1)N1CCCCCC1	-2.78
Cn1cc(CNC(=O)c2sc3cccc(Cl)c3c2Cl)cn1	-1.68
Cc1cc(C)c(S(=O)(=O)N2CCOCC2)cc1NS(=O)(=O)c1cc(OCC(N)=O)c(C)cc1Cl	15.8
Cc1ccc(C2(c3noc(CN4C[C@@H](C)O[C@@H](C)C4)n3)CCCC2)cc1	10.1
O=C(NNC(=O)C1C2CCC(C2)C1C(=O)O)c1cccc(Cl)c1 (centres unmarked)	6.27
COC(=O)Cn1cc(/C=N/NC(=O)COc2cccc3cccnc23)c2ccccc21	3.35
O=C(CCSc1nnc2ccccn12)Nc1ccc(F)cc1	3.91
CCCCN(C(=O)c1cc2c(s1)CCCCC2)c1c(N)n(CCC)c(=O)[nH]c1=O	12.7
COc1cccc(C(=O)Nc2cccc(S(=O)(=O)NC3=NCCC3)c2)c1	16.7
O=C(CS(=O)(=O)c1cn(CC(=O)N2CCOCC2)c2ccccc12)Nc1ccccc1F	12.6
O=C(CCCn1c(SCC(=O)c2ccc(F)cc2)nc2ccccc2c1=O)NCc1ccco1	7.55
O=C(N/N=C/c1ccccc1)c1cc(-c2ccc3c(c2)OCO3)n[nH]1	6.22
COCCCN1C(=O)C(=O)/C(=C(/O)c2ccc3c(c2)OCCO3)C1c1ccc(C(=O)OC)cc1 (centres unmarked)	8.36
CCOC(=O)c1sc(NC(=O)C2CC(=O)N(c3ccccc3OC)C2)nc1C (centres unmarked)	2.1
COc1ccc2oc(C(=O)OCC(=O)/C(C#N)=C(\C)N)c(C)c2c1	11.1

Compound	hERG current change (%, negative = inhibition) at 1uM [%]
Cc1nn(C)cc1C(=O)c1ccccc1	14
CCOC(=O)c1sc(NC(=O)CSCc2c(C)noc2C)nc1C	3.46
Cc1nc(/C(N)=N/OC(=O)c2ccccc2Cl)c(C(F)(F)F)o1	12.5
CC(=O)OC(COc1ccccc1)Cn1cnc2cc(C)c(C)cc21.Cl (centres unmarked)	11.6
CC(C)CC(NC(=O)C(CO)NC(=O)C1CCC(=O)N1)C(N)=O (stereo not drawn) ([pGlu]-Ser-Leu-NH2; configuration not given here)	11.9
C=CCn1c(SCC(=O)Nc2nc(C)cs2)nnc1C(CO)NC(=O)c1ccccc1 (centres unmarked)	5.97
Br.CC1CCN(Cc2nnnn2-c2cccc([N+](=O)[O-])c2)CC1	1.18
Cc1csc(Nc2ccccc2)n1	14.3
COc1ccc(OC)c(S(=O)(=O)n2nc(-c3ccccc3)cc2N)c1	0.508
C=CCc1cc(Cl)ccc1OCCCNCCO.O=C(O)C(=O)O	16.1
Cc1cccc(CSc2nnc(CCCCCNC(=O)OC(C)(C)C)o2)c1	7.06
O=C(OCC(=O)c1ccc[nH]1)c1ccccc1	11.6
CCOC(=O)CSc1nc2c(sc(=S)n2-c2ccccc2OC)c(=O)n1-c1ccccc1OC	12.6
CCOC(=O)c1ccc(Nc2cc3ccccc3c(=O)[nH]2)cc1	11.3
Cc1cc2c(cc1C)CSC(c1c(O)ccc3ccccc13)SC2	15.9
CC(C)N(CCNC(=O)COc1ccc2oc3c(c2c1)CCCC3)C(C)C	-52.7
O=C(CSc1ncccn1)c1ccccc1Br	-1.67
CCOC(=O)c1ccccc1NC(=O)c1cc(S(=O)(=O)N2CCOCC2)ccc1F	6.31
NNc1nc2sc3c(c2c(=O)n1Cc1ccccc1)CCC3	11.1

Compound	hERG current change (%, negative = inhibition) at 1uM [%]
CC(C)C(=O)c1c(C(C)C)nn2ccccc12	12.6
Clc1ccc(Cc2ccccc2)nn1	9.13
C=CCSc1nc2nc(C)cc(C)n2n1	8.28
CCOC(=O)c1cc(NC(=O)CC(C)(C)CC(=O)O)ccc1N1CCCCC1	15.5
O=c1cc(-c2ccccc2)[nH]n1-c1ccc([N+](=O)[O-])cc1	9.17
CCOC(=O)N1CCN(c2nc(-c3ccccc3)c3ccccc3n2)CC1	5
CCOC(=O)c1ccc(NC(=O)CSc2nnc(C)n2-c2ccccc2)cc1	7.95
O=C(N1CCCC1)C12CC3CC(CC(C3)C1)C2	11.5
O=C(/C=C/c1ccco1)Nc1ccccc1N1CCOCC1	7.96
CC(=O)Nc1ccc(C(=O)CSc2nnc(Cc3ccccc3)o2)cc1	-2.88
CCC/C=N/Nc1nnc(Cc2ccc(OC)c(OC)c2)c(=O)[nH]1	25.4
COc1ccc(CNC(=O)CN(C(=O)c2csnn2)c2ccccc2F)cc1	16.2
C/C(N)=C(/C#N)C(=O)COC(=O)c1cc2c(s1)CCCC2	-18.2
Cc1ccc(C)c(NC(=O)CC2Oc3ccccc3NC2=O)c1 (centres unmarked)	5.54
Cc1ccc(-c2csc(Cc3nc(-c4ccc5c(c4)CCC(=O)N5)cs3)n2)cc1	-1.13
CCn1cc(C(=O)N[C@H](C(=O)NCCN2CCOCC2)C(C)C)c(=O)c2cc3c(cc21)OCO3	23.4
COc1ccc(CCC(=O)NCCS(=O)(=O)N2CCN(c3ccccc3OC)CC2)cc1	6.96
COc1cc2c(=O)n(-c3ccc(C)cc3)c(=O)n(CC(=O)c3ccc4c(c3)OCO4)c2cc1OC	12

— article PMC4336329 (PLoS ONE, 2015)
